# Test results: PubChem BioAssay AID1476 (National Center for Advancing Translational Sciences (NCATS), 2009)
# The campaign covered roughly 200,000 compounds. About 4,500 (2.2%) were called active. Inconclusive means that the source gave no clear call. Such entries were picked first, then a sample of the others. The call rests on the fitted dose curve; in most records, active means well fitted inhibition curve with a large enough effect; inconclusive means small, poorly fitted or top-dose-only effect, or effect the other way; inactive means flat fitted curve, though single readings scatter. Potencies of inconclusive entries are doubtful fits and often do not repeat.
# Molecular target: Cruzipain (Trypanosoma cruzi) (UniProt P25779)
# Experiment: qHTS Assay for Promiscuous and Specific Inhibitors of Cruzain (without detergent); further: nearly all actives have a fitted effect of over 40% in size;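 on max response, negative = inhibition: plate controls were enzyme without inhibitor for no effect and buffer without enzyme for full effect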
# Details: purified cruzain, Z-FR-AMC fluorescence, no detergent
# Method in brief: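 Purified cruzain at 1.5 nM, pre-incubated 15 min with compound at room temperature in 100 mM sodium acetate pH 5.5, 5 mM DTT, 0.00005% Triton X-100. Reaction started with 2 uM Z-FR-AMC; AMC fluorescence increase over 60 s gives rate.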
# Potency means the concentration at half of the fitted maximal effect; tags describe the fitted curve by direction and shape.
# UniProt P25779, sequence (P25779 whole entry, looked up): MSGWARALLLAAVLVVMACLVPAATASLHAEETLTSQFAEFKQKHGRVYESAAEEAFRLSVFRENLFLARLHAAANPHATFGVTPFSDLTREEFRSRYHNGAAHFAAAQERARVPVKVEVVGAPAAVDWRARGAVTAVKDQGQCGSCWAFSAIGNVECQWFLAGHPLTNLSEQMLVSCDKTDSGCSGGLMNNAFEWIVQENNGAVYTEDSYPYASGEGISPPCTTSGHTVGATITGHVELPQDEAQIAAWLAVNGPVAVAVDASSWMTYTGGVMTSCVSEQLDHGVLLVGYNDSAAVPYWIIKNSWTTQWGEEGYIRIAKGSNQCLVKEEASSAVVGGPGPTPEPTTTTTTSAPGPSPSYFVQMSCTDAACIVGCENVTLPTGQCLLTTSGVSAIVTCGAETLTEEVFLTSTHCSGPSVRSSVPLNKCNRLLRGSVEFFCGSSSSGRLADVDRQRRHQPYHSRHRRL
SMILES,"max response, negative = inhibition",Potency
CC(=O)Nc1ccc(NC(=O)c2ccc3c(c2)N(Cc2cccc(Cl)c2)C(=O)c2ccccc2S3(=O)=O)cc1,inactive: -19.9%,–
CC1(C)[C@@H](OC(=O)CCC(=O)O)CC[C@@]2(C)[C@H]1CC[C@@]1(C)[C@H]2C(=O)C=C2[C@H]3C[C@](C)(C(=O)O)CC[C@]3(C)CC[C@@]21C,–,"inconclusive: 12.6 µM [activator, partial curve]"
O=C(NCC1COc2ccccc2O1)c1ccc(NC(=O)c2ccco2)cc1 (stereo not drawn),–,"inconclusive: 31.6 µM [inhibitor, single point]"
COc1ccc(N(CC(=O)NCc2ccccc2OC)S(=O)(=O)c2c(C)nn(C)c2C)cc1,–,"inconclusive: 31.6 µM [activator, single point]"
CCn1ccc2c(OCC(=O)Nc3ccccc3C(F)(F)F)cccc2c1=O,inactive: -4.19%,–
CCn1c2ccccc2c2cc(NC(=O)c3ccc(Br)o3)ccc21,inactive: 107%,–
Cc1cccc(C(=O)N2CCc3cc(-c4nc(NC(=O)Cn5nnc6ccccc6c5=O)sc4C)ccc32)c1,–,active: 10 µM
O=C1OCCN1C(=O)[C@H]1[C@H](c2ccccc2)C(c2ccc(F)cc2)=NN1c1ccc(Br)cc1,–,active: 20 µM
CC1CCc2sc(C(=O)Nc3nnc(SCc4ccc(F)cc4)s3)cc2C1 (stereo not drawn),–,active: 10 µM
CC(C)(C)OC(=O)N[C@@H](Cc1ccccc1)c1nnc(SCC(=O)c2ccc(Cl)cc2)o1,–,"inconclusive: 39.8 µM [inhibitor, single point]"
Cc1noc2nc(-c3cccs3)cc(-c3nnc4n3CCCCC4)c12,–,"inconclusive: 15.8 µM [activator, partial curve]"
CCC(C)C(=O)OC1CC(O)C=C2C=CC(C)C(CCC(O)CC(O)CC(=O)O)C21 (stereo not drawn),–,"inconclusive: 31.6 µM [activator, single point]"
COc1ccccc1CNS(=O)(=O)c1cnc(N)nc1,inactive: -15.9%,–
O=C(CCCCCCCCCCCCC1CCCC1)Nc1ccc(S(=O)(=O)c2ccc(NC(=O)CCCCCCCCCCCCC3CCCC3)cc2)cc1,inactive: -7.14%,–
O=C(COc1ccc2ccccc2c1)NC1CC(=O)N(c2cccc(F)c2)C1 (stereo not drawn),inactive: 21%,–
O=C(Nc1nc(-c2cccs2)cs1)c1cc2ccccc2oc1=O,inactive: -1.43%,–
COc1ccc(Cn2c(C(=O)O)c(CNCCc3cc(OC)ccc3OC)c3ccc(C)cc32)cc1,–,"inconclusive: 39.8 µM [activator, single point]"
Cc1cc(Cl)ccc1OCCCC(=O)NCCN1C(=O)S/C(=C\c2cccnc2)C1=O,–,"inconclusive: 39.8 µM [activator, single point]"
